Data taken from PubChem BioAssay (NCI).
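Five compound concentrations were applied to cells in 96-well plates for 48 hours; endpoints were derived by simple linear interpolation of the resulting dose-response curve. GI50: concentration for 50% inhibition of growth.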 For part of its entries the source gives two or more results. The other results are left out here. There may be further records. Records of one sample usually come from different ranges of test concentrations, not given here; some values may only mark the edge of a range.

Tested on: BT-549 breast
Assay: DTP human tumour cell line panel, 48 h

In the case of `COc1cc(O)c2c(c1)/C=C/C[C@H](O)[C@H](O)C(=O)/C=C\C[C@H](C)OC2=O`, the GI50 is reported as 256 nM and 2.62 µM.
